Measurements as given in the antibiotic and cytotoxicity screens of Wong et al. (2023).
The other results are listed elsewhere or left out.

Tested on: HSkMC (human skeletal muscle cells)
Assay: cytotoxicity call (relative viability < 0.9)
Conditions: 10 µM

SMILES	cytotoxicity call
COc1ccc2c3c(n(c2c1)C)[C@H](CO)N(C[C@]13CCN(CC1)C(=O)c1ccncc1)C(=O)C1CCOCC1	inactive
COc1ccc(CN(C)C[C@H]2OCCCC[C@H](C)Oc3ccc(NC(=O)c4ccncc4)cc3C(=O)N([C@H](C)CO)C[C@@H]2C)cc1	inactive
C[C@@H]1CN([C@H](C)CO)C(=O)c2cc(NS(=O)(=O)c3cn(C)cn3)ccc2O[C@@H]1CN(C)S(=O)(=O)c1cn(C)cn1	inactive
CC(=O)OCC(=O)C1(O)CCC2C3CCC4=CC(=O)CCC4(C)C3C(O)CC21C (centres undefined)	inactive
NCCNc1cccc2ccccc12	inactive
O=P(O)(O)C(Sc1ccc(Cl)cc1)P(=O)(O)O	inactive
NC1(CC(=O)O)CCN(Cc2ccccc2)CC1	inactive
C[C@H]1CN([C@@H](C)CO)C(=O)c2cc(NC(=O)Nc3ccc4c(c3)OCO4)ccc2O[C@@H]1CN(C)Cc1ccc(Cl)c(Cl)c1	inactive
Cc1noc(C)c1S(=O)(=O)Nc1ccc2c(c1)C(=O)N([C@H](C)CO)C[C@@H](C)[C@H](CN(C)Cc1ccc(C(F)(F)F)cc1)OCCCC[C@H](C)O2	inactive
C[C@@H]1CN([C@H](C)CO)C(=O)c2c(c3ccccc3n2C)-c2ccccc2CO[C@H]1CN(C)Cc1cccc2c1OCCCO2	inactive
C[C@H]1CCCCO[C@H](CN(C)Cc2ccc(C(F)(F)F)cc2)[C@@H](C)CN([C@@H](C)CO)C(=O)c2cc(NC(=O)CCCN(C)C)ccc2O1	inactive
C[C@]1(CC(=O)O)C(=O)N=C2C=CC=CN21	inactive
C[C@@H]1CCCCO[C@@H](CN(C)S(=O)(=O)c2ccc(Cl)cc2)[C@H](C)CN([C@@H](C)CO)C(=O)c2cc(NC(=O)c3ccncc3)ccc2O1	inactive
C[C@@H]1O[C@@H](O[C@@H]2[C@@H](O)[C@H](O)[C@@H](CO)O[C@H]2c2c(O)cc(O)c3c(=O)cc(-c4ccc(O)cc4)oc23)[C@H](O)[C@H](O)[C@H]1O	inactive
C/C=C/c1cnc2c(c1)C(=O)N([C@H](C)CO)C[C@H](C)[C@H](CN(C)S(=O)(=O)c1ccc(OC)cc1)O2	inactive
Cc1ccc(S(=O)(=O)Nc2ccc3c(c2)C(=O)N([C@H](C)CO)C[C@@H](C)[C@H](CN(C)Cc2ccncc2)OCCCC[C@@H](C)O3)cc1	inactive
O=C1O[C@@H](c2ccccc2)[C@@H](c2ccccc2)N2[C@@H](c3ccc(OCCO)cc3)[C@]3(C(=O)Nc4ccc(C#CC5=CCCCC5)cc43)[C@@H](C(=O)NC[C@H](O)c3ccccc3)[C@H]12	inactive
C[C@@H]1CN([C@@H](C)CO)C(=O)c2cccc(NC(=O)c3nc4ccccc4s3)c2O[C@H]1CN(C)S(=O)(=O)c1cn(C)cn1	inactive
Cn1cnc(S(=O)(=O)N2C[C@@H](O)COC[C@@H]3O[C@H](CC(=O)N4CCN(c5ccccc5)CC4)CC[C@H]32)c1	inactive
C[C@H]1CN([C@@H](C)CO)S(=O)(=O)c2ccc(Br)cc2O[C@H]1CN(C)C(=O)c1cccc(F)c1	inactive
C[C@@H]1CCCCO[C@H](CN(C)Cc2ccc(C(F)(F)F)cc2)[C@@H](C)CN([C@H](C)CO)C(=O)c2cc(NS(=O)(=O)c3ccc(Cl)cc3)ccc2O1	inactive
C[C@H](CO)N1C[C@H](C)[C@@H](CN(C)C(=O)Nc2cccc3ccccc23)Oc2c(NS(=O)(=O)c3ccc(F)cc3)cccc2C1=O	inactive
Cc1ccc(S(=O)(=O)N(C)C[C@@H]2Oc3ccc(NS(=O)(=O)c4ccccc4)cc3CC(=O)N([C@@H](C)CO)C[C@H]2C)cc1	inactive
O=C([O-])C1=C(CSc2nnnn2CS(=O)(=O)[O-])CSC2C(NC(=O)C(O)c3ccccc3)C(=O)N12.[Na+].[Na+] (centres undefined)	inactive
NCC[C@H]1CC[C@H](NC(=O)C2CCCCC2)[C@H](CO)O1	inactive
COc1ccc(NC(=O)N(C)C[C@@H]2Oc3ccc(NS(=O)(=O)c4c(C)noc4C)cc3CC(=O)N([C@@H](C)CO)C[C@@H]2C)cc1	inactive
C[C@@H]1CCCCO[C@H](CN(C)Cc2ccccc2)[C@@H](C)CN([C@@H](C)CO)C(=O)c2cc(NC(=O)CCC(F)(F)F)ccc2O1	inactive
C[C@@H]1CN([C@@H](C)CO)C(=O)c2cc(NC(=O)CCCN(C)C)ccc2O[C@H]1CN(C)Cc1ccc2c(c1)OCO2	inactive
COc1cccc(-c2ccc3n(c2=O)C[C@@H]2[C@@H](CO)[C@H](C(=O)NCC4CC4)[C@H]3N2S(C)(=O)=O)c1	inactive
